Eleven variants from the supplement of paper PMC12217912 can be followed below.

To fix the notation:
B1: TEV protease; numbered along this chain (parent)
chain: MGESLFKGPRDYNPISSSICHLTNESDGHTTSLYGIGFGPFIITNKHLFRRNNGTLVVQSLHGVFKVKDTTTLQQHLVDGRDMIIIRMPKDFPPFPQKLKFREPQREERICLVTTNFQTKSMSSMVSDTSCTFPSGDGIFWKHWIQTKDGQCGSPLVSTRDGFIVGIHSASNFTNTNNYFTSVPKNFMELLTNQEAQQWVSGWRLNADSVLWGGHKVFMVKPEEPFQPVKEATQL

Some of the results follow. The full chains were built here from the parent and the listed change. Inactive controls read about 0.05.
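Further: Bxb1 expression induced with 0.2% (w/v) L-rhamnose at OD600 near 0.5, cultures sampled hourly, flipped fraction per protease–substrate barcode pair counted by paired-end Illumina sequencing.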

In the assay the parent is B1. As to the kind of experiment: raw area under fraction-flipped curve 0-4 h after induction (AUC4h, not background-subtracted), DNA-recorder readout of cleavage of the substrate (dimensionless); higher = more cleavage of the substrate by the protease variant. Conditions: temperature: 34 °C; time window: 0-4 h after rhamnose induction.
For the variant MGESLFKGPRDYNPISSSICHLTNESDGHTTSLYGIGFGPFIITNKHLFRRNNGTLVVQSLHGVFKVKDTTTLQQHLVDGRDMIIIRMPKDFPPFPQKLKFREPQREERICLVTTNFQTKSMSSMVSDTSCTFPSGDGIFWKHWIQTKDGQCGSPLVSTRDGFIVGIHSASNFTNTNNYFTSVPKNFMELLTNQEAQQWFSGWRLNADSVLWGGHKVFMVKPEEPFQPVKEATQL [V200F], the “area with substrate ENDYFQS” value is 0.0652, the “area with substrate ENGYFQS” value amounted to 0.0379, the “area with substrate ENIYFQS” value is 0.0496 and the “area with substrate ENMYFQS” value was found to be 0.0623. Besides, the “area with substrate ENPYFQS” value is 0.0723 and the “area with substrate ENYYFQS” value was 0.0557.
MGESLFKGPRDYNPISSSICHLTNESDGHTTSLYGIGFGPFIITNKHLFRRNNGTLVVQSLHGVFKVKDTTTLQQHLVDGRDMIIIRMPKDFPPFPQKLKFREPQREERICLVTTNFQTKSMSSMVSDTSCTFPSGDGIFWKHWIQTKDGQCGSPLVSTRDGFIVGIHSASNFTNTNNYFTSVPKNFMELLTNQEAQQWGSGWRLNADSVLWGGHKVFMVKPEEPFQPVKEATQL [V200G]: the “area with substrate ENEYFQS” value turned out to be 0.0416, the “area with substrate ENPYFQS” value was determined as 0.092, the “area with substrate ENQYFQS” value worked out at 0.0358 and the “area with substrate ENTYFQS” value came to 0.0613.
MGESLFKGPRDYNPISSSICHLTNESDGHTTSLYGIGFGPFIITNKHLFRRNNGTLVVQSLHGVFKVKDTTTLQQHLVDGRDMIIIRMPKDFPPFPQKLKFREPQREERICLVTTNFQTKSMSSMVSDTSCTFPSGDGIFWKHWIQTKDGQCGSPLVSTRDGFIVGIHSASNFTNTNNYFTSVPKNFMELLTNQEAQQWQSGWRLNADSVLWGGHKVFMVKPEEPFQPVKEATQL [V200Q]: the “area with substrate ENEYFQS” value was found to be 0.058, the “area with substrate ENGYFQS” value came to 0.0449 and the “area with substrate ENSYFQS” value stood at 0.0467.
As for MGESLFKGPRDYNPISSSICHLTNESDGHTTSLYGIGFGPFIITNKHLFRRNNGTLVVQSLHGVFKVKDTTTLQQHLVDGRDMIIIRMPKDFPPFPQKLKFREPQPEERICLVTTNFQTKSMSSMVSDTSCTFPSGDGIFWKHWIQTKDGQCGSPLVSTRDGFIVGIHSASNFTNTNNYFTSVPKNFMELLTNQEAQQWVSGWRLNADSVLWGGHKVFMVKPEEPFQPVKEATQL [R106P], the “area with substrate ENEYFQS” value is 0.0654, the “area with substrate ENGYFQS” value amounted to 0.0542, the “area with substrate ENHYFQS” value worked out at 0.0581 and the “area with substrate ENIYFQS” value was determined as 0.13. Further, the “area with substrate ENNYFQS” value worked out at 0.0635, the “area with substrate ENPYFQS” value is 0.058, the “area with substrate ENRYFQS” value was found to be 0.0519 and the “area with substrate ENSYFQS” value was 0.0546. The “area with substrate ENTYFQS” value worked out at 0.0588 and the “area with substrate ENVYFQS” value is 0.0825.
As to MGYSLFKGPRDYNPISSSICHLTNESDGHTTSLYGIGFGPFIITNKHLFRRNNGTLVVQSLHGVFKVKDTTTLQQHLVDGRDMIIIRMPKDFPPFPQKLKFREPQREERICLVTTNFQTKSMSSMVSDTSCTFPSGDGIFWKHWIQTKDGQCGSPLVSTRDGFIVGIHSASNFTNTNNYFTSVPKNFMELLTNQEAQQWVSGWRLNADSVLWGGHKVFMVKPEEPFQPVKEATQL [E3Y], the “area with substrate ENEYFQS” value was determined as 0.0625, the “area with substrate ENFYFQS” value amounted to 0.0588, the “area with substrate ENIYFQS” value turned out to be 0.118 and the “area with substrate ENKYFQS” value came to 0.0612. For the same variant, the “area with substrate ENNYFQS” value worked out at 0.0742, the “area with substrate ENRYFQS” value came out at 0.0521, the “area with substrate ENVYFQS” value worked out at 0.0837 and the “area with substrate ENWYFQS” value was found to be 0.0671.
On to MGESLFKGPRDYNPISSSICHLTNESDGHTTSLYGIGFGPFIITNKHLFRRNNGTLVVQSLHGVFKVKDTTTLQQHLVDGRDMIIIRMPKDFPPFPQKLKFREPQREERICLVTTNFQTKSMSSMVSDTSCTFPSGDGIFWKHWIQTKDGQCGSPLVSTRDGFIVGEHSASNFTNTNNYFTSVPKNFMELLTNQEAQQWVSGWRLNADSVLWGGHKVFMVKPEEPFQPVKEATQL [I167E], for which the “area with substrate ENFYFQS” value was determined as 0.0566, the “area with substrate ENNYFQS” value is 0.0385, the “area with substrate ENQYFQS” value worked out at 0.0649 and the “area with substrate ENSYFQS” value amounted to 0.0516. In addition, the “area with substrate ENTYFQS” value turned out to be 0.0439, the “area with substrate ENWYFQS” value was determined as 0.025 and the “area with substrate ENYYFQS” value turned out to be 0.0309.
On to MGESLFKGPRDYNPISSSICHLTNESDGHTTSLYGIGFGPFIITNKHLFRRNNGTLVVQSLHGVFKVKDTTTLQQHLVDGRDMIIIRMPKDFPPFPQKLKFREPQREERICLVTTNFQTKSMSSMVSDTSCTFPSGDGIFWKHWIQTKDGQCGSPLVSTRDGFFVGIHSASNFTNTNNYFTSVPKNFMELLTNQEAQQWVSGWRLNADSVLWGGHKVFMVKPEEPFQPVKEATQL [I164F], for which the “area with substrate ENEYFQS” value was found to be 0.0598, the “area with substrate ENFYFQS” value worked out at 0.0437, the “area with substrate ENIYFQS” value was 0.0397 and the “area with substrate ENMYFQS” value was 0.0358. Also, the “area with substrate ENQYFQS” value is 0.0339.
As for MGESLFKGPRDYNPISSSICHLTNESDGHTTSLYGIGFGPFIITNKHLFRRNNGTLVVQSLHGVFKVKDTTTLQQHLVDGRDMIIIRMPKDFPPFPQKLKFREPQREERICLVTTNFQTKSMSSMVSDTSCTFPSGDGIFWKHWIQTKDGQCGSPLVSTRDGFIVGIHSASNFTNTNNYFTSVPKNFMELLTNQEAQQWVSCWRLNADSVLWGGHKVFMVKPEEPFQPVKEATQL [G202C], the “area with substrate ENDYFQS” value was 0.0266, the “area with substrate ENEYFQS” value is 0.0645, the “area with substrate ENGYFQS” value is 0.0505 and the “area with substrate ENHYFQS” value was determined as 0.0437. Moreover, the “area with substrate ENIYFQS” value amounted to 0.0689, the “area with substrate ENKYFQS” value was 0.0805, the “area with substrate ENMYFQS” value is 0.0631 and the “area with substrate ENPYFQS” value was determined as 0.057. Besides, the “area with substrate ENRYFQS” value was 0.067, the “area with substrate ENSYFQS” value came to 0.0534, the “area with substrate ENTYFQS” value worked out at 0.0567 and the “area with substrate ENWYFQS” value came out at 0.0522.
On to MGESLFKGPRDYNPISSSICHLTNESDGHTTSLYGIGFGPFIITNKHLFRRNNGTLVVQSLHGVFKVKDTTTLQQHLVDGRDMIIIRMPKDFPPFPQKLKFREPQREERICLVTTNFQTISMSSMVSDTSCTFPSGDGIFWKHWIQTKDGQCGSPLVSTRDGFIVGIHSASNFTNTNNYFTSVPKNFMELLTNQEAQQWVSGWRLNADSVLWGGHKVFMVKPEEPFQPVKEATQL [K120I], for which the “area with substrate ENEYFQS” value stood at 0.0614, the “area with substrate ENFYFQS” value was 0.0743, the “area with substrate ENGYFQS” value turned out to be 0.0588 and the “area with substrate ENIYFQS” value amounted to 0.12. Moreover, the “area with substrate ENKYFQS” value came to 0.0576, the “area with substrate ENNYFQS” value was 0.0631, the “area with substrate ENPYFQS” value was 0.0535 and the “area with substrate ENQYFQS” value stood at 0.0764. The “area with substrate ENRYFQS” value was determined as 0.0403 and the “area with substrate ENVYFQS” value was 0.0716.
MGESLFKGPRDYNPISSSICHLTNESDGHTTSLYGIGFGPFIITNKHLFRRNNGTLVVQSLHGVFKVKDTTELQQHLVDGRDMIIIRMPKDFPPFPQKLKFREPQREERICLVTTNFQTKSMSSMVSDTSCTFPSGDGIFWKHWIQTKDGQCGSPLVSTRDGFIVGIHSASNFTNTNNYFTSVPKNFMELLTNQEAQQWVSGWRLNADSVLWGGHKVFMVKPEEPFQPVKEATQL [T72E]: the “area with substrate ENFYFQS” value was determined as 0.0599, the “area with substrate ENHYFQS” value was determined as 0.0497, the “area with substrate ENPYFQS” value worked out at 0.0629 and the “area with substrate ENQYFQS” value turned out to be 0.0656. Besides, the “area with substrate ENSYFQS” value amounted to 0.0446 and the “area with substrate ENYYFQS” value came to 0.0616.
As for MGESLFKGPRDYNPISSSICHLTNESDGHTTSLYGIGFGPFIITNKHLFRRNNGTLVVQSLHGVFKVKDTTTLQQHLVDGRDMIIIRMPKDFPPFPQKLKFREPQREERICLVTTNFQTKSMSSMVSSTSCTFPSGDGIFWKHWIQTKDGQCGSPLVSTRDGFIVGIHSASNFTNTNNYFTSVPKNFMELLTNQEAQQWVSGWRLNADSVLWGGHKVFMVKPEEPFQPVKEATQL [D128S], the “area with substrate ENEYFQS” value is 0.0555, the “area with substrate ENGYFQS” value was found to be 0.0663, the “area with substrate ENIYFQS” value was 0.131 and the “area with substrate ENKYFQS” value amounted to 0.0742. Besides, the “area with substrate ENNYFQS” value worked out at 0.056, the “area with substrate ENPYFQS” value came out at 0.0528, the “area with substrate ENQYFQS” value is 0.0645 and the “area with substrate ENRYFQS” value was 0.0504. In addition, the “area with substrate ENSYFQS” value was 0.0629, the “area with substrate ENTYFQS” value worked out at 0.0591 and the “area with substrate ENWYFQS” value was 0.0641.
